{"source": "paper PMC6919601", "about": "“Identification of Plasmodium dipeptidyl aminopeptidase allosteric inhibitors by high throughput screening” (PLoS ONE, 2019)", "note": "Hit rate of the full screen: of about 110,000 compounds, about 230 (0.21%) showed an effect of 50% or more. Some of the results follow.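 Also: 30 min substrate incubation versus DMSO and 10 µM JCP410 controls.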", "data": [{"biological_target": "DPAP1 (Plasmodium falciparum, UniProt Q8IIJ9)", "sequence (Q8IIJ9 whole entry, looked up)": "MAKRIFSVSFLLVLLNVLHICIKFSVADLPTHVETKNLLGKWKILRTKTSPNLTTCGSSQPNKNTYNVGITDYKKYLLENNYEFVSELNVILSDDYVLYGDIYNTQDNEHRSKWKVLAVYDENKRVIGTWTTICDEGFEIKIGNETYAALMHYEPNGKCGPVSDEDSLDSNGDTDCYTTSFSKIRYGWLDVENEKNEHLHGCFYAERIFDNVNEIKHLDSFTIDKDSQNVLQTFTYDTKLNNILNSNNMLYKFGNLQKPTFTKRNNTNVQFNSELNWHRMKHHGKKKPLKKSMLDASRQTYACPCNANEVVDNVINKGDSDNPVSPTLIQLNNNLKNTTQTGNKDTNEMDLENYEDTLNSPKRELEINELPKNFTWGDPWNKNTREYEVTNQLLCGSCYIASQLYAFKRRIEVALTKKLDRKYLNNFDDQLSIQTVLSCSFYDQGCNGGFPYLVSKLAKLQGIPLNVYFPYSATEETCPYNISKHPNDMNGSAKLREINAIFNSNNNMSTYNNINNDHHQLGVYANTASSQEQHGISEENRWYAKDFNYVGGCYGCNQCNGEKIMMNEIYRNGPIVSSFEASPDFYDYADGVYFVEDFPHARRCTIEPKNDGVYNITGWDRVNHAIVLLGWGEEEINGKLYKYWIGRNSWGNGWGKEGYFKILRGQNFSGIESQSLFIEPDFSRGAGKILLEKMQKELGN", "assay": "primary screen, percent inhibition; read by cleavage of a fluorogenic dipeptide substrate; higher = more effect of the substance", "parameters": "species or system P. falciparum D10 trophozoite lysates; single well", "units": {"% Inhibition @ 10 uM": "%"}, "values": [{"smiles": "CC(C)Oc1ccc(-c2cc(C(=O)N3CCN(C)CC3)c3ccccc3n2)cc1", "% Inhibition @ 10 uM": -7.61}, {"smiles": "Cc1ccc(C)n1-c1sc2c(c1C#N)CCCC2", "% Inhibition @ 10 uM": 3.05}, {"smiles": "O=C(NCc1ccccc1)c1ccc(C(=O)NCc2ccccc2)cc1", "% Inhibition @ 10 uM": -1.8}, {"smiles": "Nc1ccc(-c2csc(N)n2)cc1", "% Inhibition @ 10 uM": -1.5}, {"smiles": "Cn1c(=O)c2c(ncn2Cc2ccccc2C#N)n(C)c1=O", "% Inhibition @ 10 uM": 0.755}, {"smiles": "CC(=O)Nc1ccc(N2C(=O)C3C4C=CC(C4)C3C2=O)cc1", "note": "(stereo not drawn)", "% Inhibition @ 10 uM": 1.64}, {"smiles": "Cc1ccc(C(=O)N2CCN(CCNC(=O)C(=O)NC(C)C)CC2)cc1", "% Inhibition @ 10 uM": 3.59}, {"smiles": "Cc1c[nH]nc1/N=C/C1=C(O)c2ccccc2C1=O", "% Inhibition @ 10 uM": -2.78}, {"smiles": "Cc1ccc(OC(=S)Nc2ccc(O)cc2)cc1", "% Inhibition @ 10 uM": -2.84}, {"smiles": "COc1cccc2sc(NC(=O)c3ccccc3Oc3ccccc3)nc12", "% Inhibition @ 10 uM": 7.49}, {"smiles": "N#CCNC(=O)C1(NC(=O)c2ccc(-c3ccccc3Cl)cc2)CCCCCCC1", "% Inhibition @ 10 uM": 0.079}, {"smiles": "Cc1ccc(CCNC(=O)c2coc3nc4ccccc4nc23)cc1", "% Inhibition @ 10 uM": -4.53}, {"smiles": "Cc1ccc(OCCNC(=O)c2cccc3ccccc23)cc1", "% Inhibition @ 10 uM": -3.45}, {"smiles": "COc1cc(/C=C2\\SC(=O)N(C)C2=O)ccc1OCC(=O)O", "% Inhibition @ 10 uM": -3.06}, {"smiles": "Cn1ccc(=O)c2c(-c3ccccc3)nc3nonc3c21", "% Inhibition @ 10 uM": -3.27}, {"smiles": "COc1ccc(-c2nc(SCC(=O)Nc3nccs3)c(-c3ccc(C)cc3)[nH]2)cc1OC", "% Inhibition @ 10 uM": 1.85}, {"smiles": "COc1ccc(/C=C/C(=O)N2CCN(c3ccc(N4CCOCC4)nn3)CC2)cc1OC", "% Inhibition @ 10 uM": -3.45}, {"smiles": "COc1cccc(Nc2nc(-c3ccc(C)c(C)c3)cs2)c1", "% Inhibition @ 10 uM": 3.61}, {"smiles": "COc1ccc(CCNC(=O)C(C)n2nc(C)c3c(C)n(-c4ccc(C)cc4)nc3c2=O)c(OC)c1", "note": "(stereo not drawn)", "% Inhibition @ 10 uM": -3.43}, {"smiles": "COc1ccccc1N1CCN(C(=O)C(C)N(c2ccccc2)S(C)(=O)=O)CC1", "note": "(stereo not drawn)", "% Inhibition @ 10 uM": 3.29}, {"smiles": "O=C(C1=C(O)C(=O)N(c2ccccn2)C1c1ccccc1Cl)c1ccccc1", "note": "(stereo not drawn)", "% Inhibition @ 10 uM": 3.91}, {"smiles": "CC(=O)Nc1sc2c(c1C(N)=O)CCC(C)C2", "note": "(stereo not drawn)", "% Inhibition @ 10 uM": 4.61}, {"smiles": "Cn1c(=O)c2c(ncn2CCCOC2c3ccccc3CCc3ccccc32)n(C)c1=O", "% Inhibition @ 10 uM": 0.189}, {"smiles": "CC1CC(C)CN(S(=O)(=O)N2CCCC(C(=O)NCCc3ccc(Cl)cc3)C2)C1", "note": "(stereo not drawn)", "% Inhibition @ 10 uM": 3.79}, {"smiles": "Cc1cc(=O)n2nc(N3CCC(C(=O)NCCC4=CCCCC4)CC3)sc2n1", "% Inhibition @ 10 uM": -2}, {"smiles": "O=C(Nc1ncccc1O)C12CC3CC(CC(C3)C1)C2", "% Inhibition @ 10 uM": 2.94}, {"smiles": "O=C1CC(Cc2ccc(Cl)cc2)C(=O)N1Cc1ccccc1", "note": "(stereo not drawn)", "% Inhibition @ 10 uM": -3.06}, {"smiles": "COc1ccc(C2(C#N)CCC(O)CC2)cc1OC", "note": "(stereo not drawn)", "% Inhibition @ 10 uM": 2.4}, {"smiles": "Cc1ccc(S(=O)(=O)NCC2CCC(C(=O)NCc3ccccc3)CC2)cc1", "note": "(stereo not drawn)", "% Inhibition @ 10 uM": 0.718}, {"smiles": "O=C(CSc1nc2ccccc2[nH]1)NC1CCCCC1", "% Inhibition @ 10 uM": -4.43}, {"smiles": "Cc1ccc(-c2cn3nc(N4CCCC(C(=O)O)C4)sc3n2)cc1", "note": "(stereo not drawn)", "% Inhibition @ 10 uM": 0.0882}, {"smiles": "O=C(NC1CCCCC1)c1cccc(Cn2cc(Cl)cn2)c1", "% Inhibition @ 10 uM": 2.08}, {"smiles": "O=C(Nc1c(C(=O)N2CCN(C(=O)c3ccco3)CC2)oc2ccccc12)c1ccco1", "% Inhibition @ 10 uM": -2.72}, {"smiles": "CCCS(=O)(=O)c1oc(-c2ccc(F)cc2)nc1S(=O)(=O)c1ccccc1", "% Inhibition @ 10 uM": 2.14}, {"smiles": "CCOc1cc([N+](=O)[O-])c2[nH]c3c(c2c1)CCNC3=O", "% Inhibition @ 10 uM": 1.87}, {"smiles": "Cc1ccc(C(C(=O)NC2CCCC2)N2CCC3(CC2)OCCO3)cc1", "note": "(stereo not drawn)", "% Inhibition @ 10 uM": 2.84}, {"smiles": "COc1ccc(OCC(=O)Nc2ccc(S(=O)(=O)N3CCc4ccccc43)cc2)cc1", "% Inhibition @ 10 uM": 10}, {"smiles": "COC(=O)c1ccc(Cn2cnc3c(cnn3-c3ccc(Cl)cc3)c2=O)o1", "% Inhibition @ 10 uM": -1.75}, {"smiles": "COc1cc(/C=C2/C(=N)N3N=C(C4CCCCC4)SC3=NC2=O)cc(OC)c1OC", "% Inhibition @ 10 uM": -3.4}, {"smiles": "CSc1nc(C)c(C)c(O)n1", "% Inhibition @ 10 uM": 1.25}, {"smiles": "CCn1c(C)nc2cc(S(=O)(=O)N(C)C)ccc21", "% Inhibition @ 10 uM": -0.128}, {"smiles": "COc1ccc2oc(=O)cc(CN(C)CCC#N)c2c1", "% Inhibition @ 10 uM": 1.67}, {"smiles": "O=C(NC1C=CS(=O)(=O)C1)c1ccccc1SCc1ccc(F)cc1", "note": "(stereo not drawn)", "% Inhibition @ 10 uM": 1.32}, {"smiles": "O=C(O)c1nn2c(C(F)(F)F)cc(-c3ccccc3)nc2c1Br", "% Inhibition @ 10 uM": 0.247}, {"smiles": "N#C/C(=C\\c1ccccc1O)c1nc(O)c2ccccc2n1", "% Inhibition @ 10 uM": -2.87}, {"smiles": "O=C1CC(C(=O)Nc2ccc(Br)cc2)C(c2ccccc2)O1", "note": "(stereo not drawn)", "% Inhibition @ 10 uM": 3.98}, {"smiles": "Cc1nc2nc(N)nn2c(O)c1Cc1ccccc1", "% Inhibition @ 10 uM": 0.795}, {"smiles": "O=C(NC1(C(F)(F)F)N=C(c2ccccc2)NC1=O)c1ccccc1F", "note": "(stereo not drawn)", "% Inhibition @ 10 uM": -5.4}, {"smiles": "COc1cc(NC(=O)c2ccco2)ccc1NC(=O)c1ccco1", "% Inhibition @ 10 uM": -0.511}, {"smiles": "Cc1cc(Nc2ccccc2)nc(N)n1", "% Inhibition @ 10 uM": -2.6}, {"smiles": "COc1ccc(C2C(C#N)=C(SCC(=O)Nc3ccc(F)cc3)N=C3CC(C)(C)CC(O)=C32)cc1", "note": "(stereo not drawn)", "% Inhibition @ 10 uM": -4.65}]}]}
